In all, about 45,000 compounds went through this assay and about 200 (0.44%) were called active. Roughly 7% stayed inconclusive and do not appear here. Calls follow the shape of the dose curve; as a rule, active = well fitted activation curve with a large enough effect; inconclusive = small, poorly fitted or top-dose-only effect; inactive = no such curve, though single readings can be large or run the other way. This is one part of the list.

This assay is described as follows: qHTS of TDP-43 Inhibitors: NCGC Sytravon Library Screen. Also: 0% is about no effect; nearly all actives have a fitted effect of over 55% in size. The conditions noted are these: yeast TDP-43 toxicity rescue, BacTiter-Glo growth, 24 h; series mostly up to 46.1 µM; growth rescue (activation): at the top concentration. In outline:
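TDP-43-expressing yeast, pregrown in raffinose, seeded at OD600 0.02 in galactose medium with compound for 24 hr at 30 deg C. Growth read by BacTiter-Glo luminescence, so rescue of toxicity appears as activation.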
(qHTS replaces the single test concentration by a dilution series.)
As to `C/C(=N\Nc1ccc2nncn2n1)c1ccc(Br)s1`, the “growth rescue (activation)” value was inactive: 5.42%.

As for `COc1ccc(CNC(=O)CN2C(=O)NC(C)(c3cccc4ccccc34)C2=O)cc1OC` (stereo not given), the “growth rescue (activation)” value is inactive: -13.8%.

With `COc1ccc(C(=O)N2CCCC(C)(C(=O)NS(=O)(=O)C3CC3)C2)cc1` (stereo not given), the “growth rescue (activation)” value was inactive: -2.59%.

In the case of `CCc1ccc(NC(=O)Cc2ccc(-n3cccc3)cc2)cc1`, the “growth rescue (activation)” value was inactive: 17.7%.

For `CC(C)N1CCC(n2nccc2NC(=O)c2ccc3c(c2)OCO3)CC1`, the “growth rescue (activation)” value is inactive: 9.44%.

`COc1cc(C(=O)NCC(=O)N/N=C/c2cccnc2)cc(OC)c1OC`: the “growth rescue (activation)” value is inactive: 7.59%.

As to `COc1cccc(CNc2nc(NC(C)C)nc3ccsc23)c1OC`, the “growth rescue (activation)” value was inactive: 9.33%.

In the case of `COc1ccc(CNS(=O)(=O)c2ccc(-n3cnnn3)c(OC)c2)cc1`, the “growth rescue (activation)” value is inactive: 6.09%.

`COc1ccc(C2c3ccc4ccccc4c3Oc3ncn4nc(Cc5ccccc5)nc4c32)cc1OC` (stereo not given): the “growth rescue (activation)” value is inactive: -2.15%.

On to `Cc1ccc(S(=O)(=O)N2c3ccccc3CC2C)cc1` (stereo not given), for which the “growth rescue (activation)” value is inactive: -27%.

With `O=C(O)c1cnn(-c2ccccc2)c1-c1ccncc1`, the “growth rescue (activation)” value was inactive: -4.48%.

Take `CCOC(=O)N1CCN(C(=S)NC(=O)c2ccc(F)cc2)CC1`: the “growth rescue (activation)” value is inactive: 10.3%.

Turning to `COc1cccc(CN2CCC(N(CCc3ccccc3)Cc3ccccc3)CC2)c1OC`, the “growth rescue (activation)” value is inactive: -51.1%.

Consider `CCOC(=O)c1sc(N2C(=O)C(O)=C(C(=O)c3ccco3)C2c2ccco2)nc1C` (stereo not given), for which the “growth rescue (activation)” value was inactive: -2.12%.

In the case of `COc1cc(C(=O)Nc2ccc(C)cc2)c2ccccc2n1`, the “growth rescue (activation)” value is inactive: -5.52%.

As to `Cc1ccc(NC(=O)N2CCN(c3ccc(Cl)c(Cl)c3)CC2)cc1`, the “growth rescue (activation)” value was inactive: 12.2%.

On to `COc1c(Br)cc2c(C)c(C(=O)O)oc2c1Br`, for which the “growth rescue (activation)” value is inactive: 27.1%.

As to `CC(C)(C)NC(=O)CN(C(=O)c1csnn1)c1ccccc1-c1ccccc1`, the “growth rescue (activation)” value is inactive: -5.05%.

Regarding `Cc1ccc(F)cc1CNC(=O)c1cc(COc2ccc3ncccc3c2)on1`, the “growth rescue (activation)” value was inactive: 7.06%.

On to `CC(C)(C)c1nnc(NC(=O)Cc2ccc(Br)cc2)s1`, for which the “growth rescue (activation)” value is inactive: 0.69%.

On to `CC1(C(=O)NCc2ccc3c(c2)OCO3)CCN1C(=O)Cc1cccc2ccccc12` (stereo not given), for which the “growth rescue (activation)” value is inactive: 22.8%.

In the case of `COC(=O)C1CCN(CC(=O)Nc2ccc3c(c2)OCCO3)CC1`, the “growth rescue (activation)” value is inactive: -21.6%.

For the molecule `CCOc1ccc(N2C(=O)CC(N(Cc3ccco3)C(=O)CCC(=O)O)C2=O)cc1` (stereo not given), the “growth rescue (activation)” value was inactive: 9.25%.

For `CCN(C(=O)CSc1nnc(Nc2cccc(C)c2C)s1)C1CCS(=O)(=O)C1` (stereo not given), the “growth rescue (activation)” value is inactive: -13.8%.

Take `Cc1nn(C(C)C(=O)NC2C(=O)N3C(C(=O)O)=C(CSc4nnnn4C)CSC23)cc1Cl` (stereo not given): the “growth rescue (activation)” value is inactive: -8.9%.

With `COc1ccccc1OCC(=O)Nc1cc(S(=O)(=O)N2CCCCC2)ccc1N1CCCCC1`, the “growth rescue (activation)” value was inactive: 8.32%.

For the molecule `O=C(CSc1nc2ccccc2c(=O)n1-c1ccc(OC(F)F)cc1)NCc1cccs1`, the “growth rescue (activation)” value was inactive: 8.5%.

As for `Cc1nnc(SCC(=O)Nc2ccc(S(N)(=O)=O)cc2)n(N)c1=O`, the “growth rescue (activation)” value is inactive: 1.59%.

For the molecule `CC1=CC(c2ccccc2)n2nnnc2N1` (stereo not given), the “growth rescue (activation)” value is inactive: 9.72%.

For `Cc1ccc(C(=O)OCC(=O)c2c[nH]c3ccccc23)cc1`, the “growth rescue (activation)” value was inactive: 24.5%.

As to `Cc1ccccc1OCC(=O)NC(=S)Nc1ccc(N2CCCC2)cc1`, the “growth rescue (activation)” value was inactive: -2.63%.

Consider `Oc1[nH]c2ccccc2c1N=Nc1ccccc1F`, for which the “growth rescue (activation)” value is inactive: 20.8%.

For the molecule `COc1cc2c(cc1OC)C(SC)=NC1(CCCC1)C2`, the “growth rescue (activation)” value is inactive: 1.49%.

For `Cc1cc(NC(=O)COc2ccc(C)c(C)c2)no1`, the “growth rescue (activation)” value is inactive: 15.5%.

With `CCC(OC(=O)c1ccco1)C(=O)NCc1ccc2c(c1)OCO2` (stereo not given), the “growth rescue (activation)” value was inactive: -31.8%.

Turning to `CC1(C)C2CCC(C2)C1(C)NC(=O)CNCC1CCCCC1` (stereo not given), the “growth rescue (activation)” value is inactive: 4.31%.

For `S=C(NCCCc1ccccc1)Nc1ccc(Cl)cc1`, the “growth rescue (activation)” value is inactive: -91.1%.

With `O=C(CCCOc1ccccc1)NNC(=O)c1ccncc1`, the “growth rescue (activation)” value was inactive: -12.9%.

On to `COc1ccc(C2/C(=C(/O)c3ccc(C)cc3)C(=O)C(=O)N2CC2CCCO2)cc1OC` (stereo not given), for which the “growth rescue (activation)” value was inactive: -2.2%.

With `O=C(NCc1ccccc1Cl)C1CCCN(S(=O)(=O)c2cccc3nonc23)C1` (stereo not given), the “growth rescue (activation)” value is inactive: -4.57%.

For the molecule `CC(Oc1ccccc1Cl)c1nnc(N)s1` (stereo not given), the “growth rescue (activation)” value is inactive: 19.7%.

As for `Cc1ccnc(NS(=O)(=O)c2ccc(N3C(=O)Nc4ccccc4N3O)cc2)c1`, the “growth rescue (activation)” value was inactive: -4.24%.

For the molecule `CC1CC(C)CN(C(=O)COc2cccnc2[N+](=O)[O-])C1` (stereo not given), the “growth rescue (activation)” value is inactive: -8.57%.

As to `Cc1cc(C)n(CC2CC(=O)N(c3ccc(C)c(Cl)c3)C2=O)n1` (stereo not given), the “growth rescue (activation)” value is inactive: 7.76%.

Take `Cc1cc(NC(=O)CCC(=O)N(Cc2ccco2)C(C(=O)NC2CCCC2)c2ccc(F)cc2)no1` (stereo not given): the “growth rescue (activation)” value was inactive: 19.4%.

In the case of `CCn1cc(C2C3=C(CC(C)(C)CC3=O)N(c3ccccc3)C3=C2C(=O)CC(C)(C)C3)c(C)n1`, the “growth rescue (activation)” value was inactive: 6.35%.

Consider `CCCCCCCC(=O)NNC(=O)c1c(O)c2ccccc2n(CC)c1=O`, for which the “growth rescue (activation)” value is inactive: -17.2%.

As to `Clc1ccc(-c2c[n+](Cc3ccc(Br)cc3)c3n2CCCCC3)cc1`, the “growth rescue (activation)” value was inactive: -8.09%.

As to `COc1ccccc1N=c1oc2cc(O)ccc2cc1C(N)=O`, the “growth rescue (activation)” value was inactive: -33.7%.

Consider `O=C(CSc1nc2ccc([N+](=O)[O-])cc2s1)NCC1CCCO1` (stereo not given), for which the “growth rescue (activation)” value is inactive: 13.6%.

Take `O=C(COC(=O)c1cccc(Br)c1)NCC1CCCO1` (stereo not given): the “growth rescue (activation)” value is inactive: 10.9%.

As for `COc1cc(/C=N/NC(=S)NC(C)C)ccc1OCC(=O)Nc1c(C)cc(C)cc1C`, the “growth rescue (activation)” value was inactive: 13.2%.

In the case of `Cc1ccc(CNC(=O)C(C)C2Sc3ccccc3NC2=O)cc1` (stereo not given), the “growth rescue (activation)” value is inactive: -12%.

`Cc1ccc(CSC2=Nc3ccccc3C3=NC(=O)CN23)cc1`: the “growth rescue (activation)” value was inactive: 5.6%.

For `COc1cc(/C=C2\CCCc3c2nc2ccccc2c3C(=O)O)cc([N+](=O)[O-])c1O`, the “growth rescue (activation)” value is inactive: -32.8%.

With `CC(=O)Nc1ccc(S(=O)(=O)N2CCN(S(=O)(=O)N3CCC(C)CC3)CC2)cc1`, the “growth rescue (activation)” value is inactive: 16.3%.

With `Cc1csc(=Nc2ccccc2)n1CCO`, the “growth rescue (activation)” value was inactive: 8.7%.

Take `CN(C(=O)COC(=O)c1cncc(Br)c1)C1CCCCC1`: the “growth rescue (activation)” value was inactive: -14.1%.

On to `CC(=O)Nc1ccc(SCC(=O)NCC2(N3CCCCC3)CCCCC2)cc1`, for which the “growth rescue (activation)” value was inactive: 13.4%.

Take `Cc1ccc(OCC(=O)N2CCN(S(C)(=O)=O)CC2)cc1`: the “growth rescue (activation)” value was inactive: 6.89%.

Turning to `N#Cc1ccccc1NC(=O)COC(=O)c1c[nH]c2ccccc12`, the “growth rescue (activation)” value is inactive: 4.77%.

In the case of `Cc1cccc(C(=O)n2c(=S)nc3cc(C)ccn32)c1`, the “growth rescue (activation)” value was inactive: 17.2%.

Take `COC(=O)c1cnc(NC(=O)C2(C)CCCN(C(C)=O)C2)s1` (stereo not given): the “growth rescue (activation)” value was inactive: 6.63%.

Take `COc1ccc(C2=C(C)CC(C)(C)NC2=O)cc1OC`: the “growth rescue (activation)” value is inactive: 10.5%.

For `COc1ccccc1C1C(C#N)=C(N)Oc2c1oc(CO)cc2=O` (stereo not given), the “growth rescue (activation)” value was inactive: -5.64%.

Consider `CC(C)n1c(CNC(=O)c2ccccc2F)nnc1SCC(=O)c1ccc(F)cc1`, for which the “growth rescue (activation)” value is inactive: 9.33%.

Regarding `O=C(CSc1nnc(-c2ccc(Cl)cc2)n1Cc1ccco1)NCc1ccc2c(c1)OCO2`, the “growth rescue (activation)” value is inactive: -4.82%.

For the molecule `Cc1cc(CN(C)Cc2ccc(OCC(O)CN(C)Cc3ccccc3)cc2)on1` (stereo not given), the “growth rescue (activation)” value is inactive: 3.34%.

On to `O=c1[nH]cnc2c1N=C(c1cccc([N+](=O)[O-])c1)CC(c1ccccc1)N2` (stereo not given), for which the “growth rescue (activation)” value was inactive: 11.9%.

`O=c1c(NCCc2ccccc2)c(-c2ccccc2)c1=O`: the “growth rescue (activation)” value is inactive: -0.492%.

Values taken from PubChem BioAssay AID1347073 (National Center for Advancing Translational Sciences (NCATS), 2019).
